B1: OR4K15 (parent)
chain: GUUAACGGUCAUAGGCCAUGGAAACUAGGAGCACCAUUUCGCUGCCAGUGAAGAAAUGAACAAAGAAAAUCUGGGCCAGGCAGGCAUCAAAAGAAAUAGUCUUGCGCUCAACCAGAAAGUCUGUAAUCAUUUUAAGGGUA

The source gives no read counts; variants with many changes may rest on few reads.

Data on 20 variants can be found in the RNAGym collection of RNA variant scans (doi:10.7554/elife.90254).

The variants in this data set derive from B1. Briefly: self-cleavage, relative activity (ratio to wild type); higher = more cleavage; in vitro, sequencing; the parent is a self-cleaving ribozyme.
With GUUAACGGUCAUAGGCCAUGGAAACUAGGAGCACCAUUUCGCUGCCAGUGAAGAAAUGAACAAAGAAGAUCUGGGCCAGGCAGGCAUCAAAAGAAAUAGUCUUGCGCUCAACCAGAGAGUCCGUAAUCAUUUUAAGGGUA, the self-cleavage is 2.09.

With GUUAACGGUCAUAGGCCAUGGAAACUAGGAGCACCAUUUCGCUGCCAGUGAAGAAAUGAACAAAGAAGAUCUGGGCCAGGCAGGCAACAAAAGAAAUAGUCUUGCGCUCAACCAGAAAGUCCGUAAUCAUUUUAAGGGUA, the self-cleavage amounted to 0.32.

As for GUUAACGGUCAUAGGCCAUGGAAACUAGGAGCACCAUUUCGCUGCCAGUGAAGAAAUGAACAAAGAAGAUCUGGGCCAGGCAGGCAUCAAGAGAAAUAGUCUUGCGCUCAACCAGAAAGUCCGUAAUCAUUUUAAGGGUA, the self-cleavage was 0.35.

In the case of GUUAACGGUCAUAGGCCAUGGAAACUAGGAGCACCAUUUCGCUGCCAGUGAAGAAAUGAACAAAGAAGAUCUGGGCCAGGCAGGCAUCAAAAGAAAUAGUCUUGUGCUCAACCAGAAAGUCUGUUAUCAUUUUAAGGGUA, the self-cleavage is 0.13.

Take GUUAACGGUCAUAGGCCAUGGAAACUAGGAGCACCAUUUCGCUGCCAGUGAAGAAAUGAACAAAGAAGAUCUGGGCCAGGCAGGCAUCAAAGGAAAUAGUCUUGCGCUCAACCAGAGAGUCUGUAAUCAUUUUAAGGGUA: the self-cleavage is 1.85.

Consider GUUAACGGUCAUAGGCCAUGGAAACUAGGAGCACCAUUUCGCUGCCAGUGAAGAAAUGAACAAAGAAGAUCUGGGCCAGGCAGGCAUCAAAAGAAAUAGCCUUGCGCUCAACCAGAAAGUCUGUAAUCAUUUUAGGGGUA, for which the self-cleavage was determined as 0.69.

For GUUAACGGUCAUAGGCCAUGGAAACUAGGAGCACCAUUUCGCUGCCAGUGAAGAAAUGAACAAAGAAGACCAGGGCCUGGCUGGCAUCAAAGGAAGUAGUCUUGCGCUCAACCAGAAGGUCUGUAAUCAUUUUAAGGGUA, the self-cleavage came out at 0.02.

For the variant GUUAACGGUCAUAGGCCAUGGAAACUAGGAGCACCAUUUCGCUGCCAGUGAAGAAAUGAACAAAGAAGAUCUGGGCCAGGCAGGCACCAAAAGAAAUAGUCUUGCGCUCAACCAGAAAGUCAGUAAUCAUUUUAAGGGUA, the self-cleavage was 0.91.

GUUAACGGUCAUAGGCCAUGGAAACUAGGAGCACCAUUUCGCUGCCAGUGAAGAAAUGAACAAAGAAGAUCCGGGCCAAGCAGGCAUCAAAAGAAAUAGUCUUGCGCUCAACCAGAAAGUCUGUAAUCAUUUUAAGGGUA: the self-cleavage worked out at 0.25.

On to GUUAACGGUCAUAGGCCAUGGAAACUAGGAGCACCAUUUCGCUGCCAGUGAAGAAAUGAACAAAGAAGAUCUGGGCCAGGCAGGCAUCAAAAGAAAUAGUCUUGCGCUCAACCGGAAAGUCUGUAAUCAUUCUAAGGGUA, for which the self-cleavage is 0.41.

As for GUUAACGGUCAUAGGCCAUGGAAACUAGGAGCACCAUUUCGCUGCCAGUGAAGAAAUGAACAAAGAAGAUCUGGGCCAGGCAGGCAUCAAAAGGAAUAGUCUUGCGCUCAACCAGAAAGACUGUAAUCAUUUUAAGGGUA, the self-cleavage was found to be 1.65.

Turning to GUUAACGGUCAUAGGCCAUGGAAACUAGGAGCACCAUUUCGCUGCCAGUGAAGAAAUGAACAAAGAAGAUCUGGGCCAGGCAGGCAUCAAAAGGAAUAGUCUUGCGCUCAACCAGAAAGUCUGUAAACAUCUUAAGGGUA, the self-cleavage is 1.09.

With GUUAACGGUCAUAGGCCAUGGAAACUAGGAGCACCAUUUCGCUGCCAGUGAAGAAAUGAACAAAGAAGAUCUGGGCCAGGCAGGCAUCAAAAGAAACAGUCUUGCGCUCAACCAGAAAGUCUGUAAUCGUUUUAAGGGUA, the self-cleavage turned out to be 0.7.

In the case of GUUAACGGUCAUAGGCCAUGGAAACUAGGAGCACCAUUUCGCUGCCAGUGAAGAAAUGAACAAAGAAGAUCUGAGCCAGGCAGGCAUCUAAAGAAAUAGUCUUGCGCUCAACCAGAAAGUCUGUAAUCAUUUUAAGGGUA, the self-cleavage came out at 0.22.

Turning to GUUAACGGUCAUAGGCCAUGGAAACUAGGAGCACCAUUUCGCUGCCAGUGAAGAAAUGAACAAAGAAGAUCUGGGCCAGGCAGGCAUCAGAAGAAAUAGUCUUGCGCUCAACCAGAAAGUCUGUAAUCAUUUUAAGGGCA, the self-cleavage stood at 1.2.

GUUAACGGUCAUAGGCCAUGGAAACUAGGAGCACCAUUUCGCUGCCAGUGAAGAAAUGAACAAAGAAGAUCUGGGCCAGGCAGGCAUCAAAAGCAAUAGUCUUGCGCUCAACCCGAAAGUCUGUAAUCAUUUUAAGGGUA: the self-cleavage is 0.

As for GUUAACGGUCAUAGGCCAUGGAAACUAGGAGCACCAUUUCGCUGCCAGUGAAGAAAUGAACAAAGAAGAUCUGGGCCAGGCAGGCAACAAAAGAAAUAGUCUUGCGCUCAACCAGAAAGUCUGUAACCAUUUUAAGGGUA, the self-cleavage was determined as 0.74.

GUUAACGGUCAUAGGCCAUGGAAACUAGGAGCACCAUUUCGCUGCCAGUGAAGAAAUGAACAAAGAAGAUCUGGGCCAGGCAGGCAUCAAAAGAAAUAGUCUUGCGCUCAACCAGAAAGUCUGAAAUCGUUUUAAGGGUA: the self-cleavage was determined as 0.78.

For the variant GUUAACGGUCAUAGGCCAUGGAAACUAGGAGCACCAUUUCGCUGCCAGUGAAGAAAUGAACAAAGAAGAUCUGGGCCAGGCAGGCAUCAAAAGAAAUAGUCUUGCGCUCAUCCAGAGAGUCUGUAAUCAUUUUAAGGGUA, the self-cleavage is 0.2.

On to GUUAACGGUCAUAGGCCAUGGAAACUAGGAGCACCAUUUCGCUGCCAGUGAAGAAAUGAACAAAGAAGAUCUGGGCCAGGCAGGCAUCAAAGGAAAUAGUCUUGCGCUCAACCAGAAGGUCUGUAAUCAUUUUAAGGGUA, for which the self-cleavage worked out at 0.61.
